One data set deals with H460 RSM-932AR cells. Kind of data set: Cell proliferation assay (MTT), H460 line resistant to RSM-932A. In kind it is cell-based, human. The procedure: (§1) Cell lines resistant to MN58b and RSM-932A (identified as MN58R and RSM-932A-R, respectively) were generated by prolonged continuous exposure to increasing concentrations of each drug. A parallel control (H460 stock) of the cell line in the absence of the compounds was kept in culture for the same time.
(§2) Cells were seeded on 96-well plates (B D, Falcon, Bioscience, San Jose, Calif., USA) at a density of 6000 cells/well, and incubated for 24 h under standard conditions. Then, cells were treated with different concentrations of the ChoK inhibitors (quadruplicates of each concentration) and maintained for 72 hours. […] Absorbance is read at 595 nm in a VersaMax Microplate Reader (Molecular Devices, Sunnyvale, Calif., USA). For sensitization with acid ceramidase inhibitor, cells were pre-treated 4 hours with the correspondent IC50 for NOE before treatment with ChoK inhibitors. NOE (N-Oleoyl ethanolamine) was obtained from Calbiochem (La Jolla, Calif., USA).
(§3) To further study the mechanism underlying resistance to ChoK inhibition, as well as the implication of acid ceramidase in this effect, we used the human NSCLC-derived H460 cell line for a set of in vitro experiments. […]

The test system of data set [1] is DLD-1, HT-29, HCT-116, SW620 and SW480. Kind of data set: MTT sensitivity in five colon cancer derived cell lines. In kind it is cell-based. The conditions noted are these: five colon cancer derived cell lines (FIG. 7). From the text:
(§4) To that end, five colon cancer derived cell lines were used: DLD-1, HT-29, HCT-116, SW620 and SW480.

In data set [2] the test system is SW620 colon cancer derived cells. Kind of data set: MTT cytotoxicity, ChoKI and TRAIL, SW620.
Description: as §4

The subject of another data set is H460 cells. In words: Combination index assay (Chou Talalay) cisplatin plus ChoK inhibitors. Format: cell-based, human. The conditions noted are these: cisplatin 3 h followed by 40 h of ChoK inhibitor, CI<1 synergistic, CIs<0.5 strong synergistic. On the procedure:
All experiments were performed in quadruplicate.

In data set [3] the test system is H460 non-small lung cancer cells. Kind of data set: Cell proliferation assay (MTT), H460. In kind it is cell-based, human.
The test system of another data set is H460 MN58R cells. Kind of data set: Cell proliferation assay (MTT), H460 line resistant to MN58b. Format: cell-based, human. The procedure: as §1, §2, §3
Data set [4] concerns HT-29 colon cancer derived cells. In words: MTT cytotoxicity, ChoKI and TRAIL, HT-29.
Description: as §4

The test system of data set [5] is DLD-1 colon cancer derived cells. Kind of data set: MTT cytotoxicity, ChoKI and TRAIL, DLD-1.
Description: as §4

A further data set concerns H460stock cells. In words: Cell proliferation assay (MTT), H460stock control line. In kind it is cell-based, human. On the procedure: as §1, §2, §3
In data set [6] the test system is PARP degradation or caspase 3 activation. Kind of data set: Western blot of PARP and caspase-3. Format: cell-based. The conditions noted are these: TRAIL and choline kinase inhibitor combined, Western blot (FIG. 8D). On the procedure:
Western blot analysis of equal amounts of cell lysates (30 μg) was performed using each correspondent antibody. Proteins were resolved by electrophoresis onto 10% SDS-PAGE gels and transferred to nitro-cellulose. Blots were blocked for 2 h in 5% non-fat dried milk in T-TBS. Determination of ASAH1 was carried out using a monoclonal antibody (1:250) obtained from BD Transduction Laboratories (Ref. 6123012). As loading control, blots were assayed against α-tubulin (Sigma T9026). Determination of caspase-3 and PARP was carried out using anti-caspase-3 and anti-PARP antibodies (Santa Cruz Biotechnology, Santa Cruz, Calif.).
(A western blot detects proteins with antibodies after separation by electrophoresis.)

Read-outs that look alike come from different tables or passages of the source.

Consider 1 compound from patent publication US20100068302A1, “METHODS AND COMPOSITIONS FOR THE TREATMENT OF CANCER” (TRASLATIONAL CANCER DRUGS PHARMA, S.L., priority 2008, published 2010).

In general, IC50 refers to the point on the concentration scale where inhibition reaches its midpoint. For the compound `CN(c1ccc(Cl)cc1)c1cc[n+](Cc2ccc(-c3ccc(C[n+]4ccc(N(C)c5ccc(Cl)cc5)c5ccccc54)cc3)cc2)c2ccccc12.[Br-].[Br-]` [RSM-932A, 1,1′-(biphenyl-4,4′-diylmethylene)bis [4-(4-chloro-N-methylanilino-)quinolinium]dibromide], the IC50 with H460 RSM-932AR cells stood at 10.8 µM; in data set [3] (H460 (Table 8), read-out: IC50) it was 1.11 µM; in data set [3] (H460, single agent (Table 7), read-out: IC50 72 h), 1.11 µM; with H460 MN58R cells, 9.5 µM; in the data set with H460stock cells it was 1.32 µM. The “figure in parentheses after IC50 (undefined; apparently fold resistance vs H460stock)” value with H460 RSM-932AR cells worked out at 8; in the data set on H460 MN58R cells it was 7. The “sensitivity across the cell lines” value in [1] is “very similar in all cell lines analysed”. Further, the cytotoxicity in [2] (SW620, ChoKI in combination with TRAIL) is listed as 41%; in [2] (SW620, drug alone), 9%; in [4] (HT-29, ChoKI in combination with TRAIL), 81%; in data set [4] (HT-29, drug alone) it was 48%. Besides, the “Combination index (CI) with cisplatin” value with H460 cells was 0.4. In addition, the “cytotoxicity, percentage of cell death” value in data set [5] (DLD-1, ChoKI 2 hours pre-treatment then TRAIL 24 h (both drugs combined)) is 75%; in [5] (DLD-1, drug alone), 53%. In addition, the “PARP degradation or caspase 3 activation” value in data set [6] was “increase”.
